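1) Cells in 96-well plates. 2) Compound, 48 h, 5 concentrations. 3) Linear interpolation between surrounding doses. 4) Unreached endpoint = highest concentration. GI50 is the concentration that inhibits growth by half.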 Active and inactive are the calls of the source. Cut-off read from the data, not from the text of the source: active = GI50 up to about 1.1 µM and inactive = higher.

The test system of this experiment is NCI-H322M. Briefly: NCI tumour cell line growth inhibition, 48 h.
`Cc1cccc(NC(N)=S)c1`: the GI50 is inactive: > 100 µM.

Regarding `CCOC(=O)COc1cc(-c2ccccc2F)nc2cc3c(cc12)OCO3`, the GI50 was inactive: > 100 µM.

Take `COc1ccc(S(=O)(=O)NC(C)C(=O)O)cc1` (centres undefined): the GI50 was inactive: > 100 µM.

On to `COc1ccc(-c2cc(O)c3cc4c(cc3n2)OCO4)c(OC)c1OC`, for which the GI50 is inactive: > 100 µM.

Turning to `CNC(=O)OCc1nc(SSC(C)(C)C)n(C)c1COC(=O)NC`, the GI50 is inactive: 16 µM.

Consider `O=C1NC(c2cccc3ccccc23)Nc2ccccc21` (centres undefined), for which the GI50 was inactive: 1.18 µM.

For the compound `Cn1c(=O)sc2cc(C(=S)N3CCN(c4ccccc4)CC3)ccc21`, the GI50 is inactive: 73.1 µM.

As to `Cc1ccc(S(=O)(=O)ON2C(=O)c3cccc4cc([N+](=O)[O-])cc(c34)C2=O)cc1`, the GI50 is inactive: 83.9 µM.

Take `C=C[C@]1(C)C[C@@H](OC(=O)CO)[C@@]2(C)[C@H](C)CC[C@]3(CCC(=O)[C@H]32)[C@@H](C)[C@@H]1O`: the GI50 was inactive: > 100 µM.

As to `Cc1ccc(C)c(C(=N)c2ccccc2Cc2ccccc2)c1`, the GI50 is inactive: 28.4 µM.

Regarding `CC(C)CC(N/C=C1/N=C(c2ccccc2)OC1=O)C(=O)O` (centres undefined), the GI50 is inactive: > 100 µM.

On to `CN(Nc1cc(=O)[nH]c(=O)[nH]1)c1ccccc1`, for which the GI50 is inactive: > 100 µM.

Consider `N/C(=N\c1c([N+](=O)[O-])cnc2ccccc12)N1CCOCC1`, for which the GI50 is inactive: > 100 µM.

In the case of `COC1CC(OC2CCC3(C)C(=CCC4C3C(OC(C)=O)C(OC(=O)CC(C)C)C3(C)C(C(C)=O)CCC43O)C2)OC(C)C1OC1CC(OC)C(OC2CC(OC)C(OC3OC(C)C(O)C(OC)C3O)C(C)O2)C(C)O1` (centres undefined), the GI50 was inactive: 53.7 µM.

Take `CCCCCCC(N)(CCCCCC)C(=O)Nn1c(C)ccc1C`: the GI50 was inactive: > 100 µM.

As to `N/C(=N\Nc1nc2cc([N+](=O)[O-])ccc2o1)c1ccccn1`, the GI50 is active: 0.138 µM.

On to `Nc1ccn(C2OC(CO)C(O)C2O)c(=O)n1` (centres undefined), for which the GI50 is inactive: 438 µM.

On to `O=C1c2ccccc2-n2c1nc1cc(Cl)ccc1c2=O`, for which the GI50 is inactive: > 100 µM.

Regarding `Cc1nc2c(s/c(=N\N)n2-c2ccccc2)c(=O)[nH]1`, the GI50 was inactive: > 100 µM.

With `CC1=NN(C(=O)Nc2ccccc2)C(=O)C2CCC(=O)N12` (centres undefined), the GI50 was inactive: > 100 µM.

In the case of `COc1cc(/C=C/c2csnn2)cc(OC)c1OC`, the GI50 was inactive: > 100 µM.

As for `O=C(NCCCNCCN1C(=O)c2cccc3cc([N+](=O)[O-])cc(c23)C1=O)c1cc(-c2ccccc2)nc2ccccc12`, the GI50 was inactive: 2.58 µM.

In the case of `O=C1N/C(=N/N=C\c2ccccc2)N/C1=C/c1ccccc1`, the GI50 is inactive: 34.4 µM.

Take `CCCc1[nH]nc(C(N)=O)c1/N=N/N(C)C`: the GI50 was inactive: > 100 µM.

As to `N#CCCN(CCN(C(=O)Nc1ccccc1)c1ccccc1)C(=O)Nc1ccccc1`, the GI50 is inactive: > 100 µM.

Take `CC(=O)OC1CC[C@@]2(C)C(=CC[C@@H]3[C@@H]2CC[C@]2(C)Nc4nn(S(C)(=O)=O)cc4C[C@@H]32)C1` (some centres undefined): the GI50 is inactive: 75 µM.

Turning to `c1cc2c(cc1NC1=NCCO1)OCO2`, the GI50 was inactive: > 100 µM.

Regarding `COc1ccc(-c2onc(-c3ccc([N+](=O)[O-])cc3)c2C2=NCCN2)cc1`, the GI50 was inactive: 36.6 µM.

Turning to `CC12CC3OC(=O)C1COC14OC5(C2C1=O)C(O)(CCC1C4CC2OC24CC=CC(=O)C14C)C(=O)OC35C` (centres undefined), the GI50 is inactive: 30.5 µM.

As to `CCCC(=O)n1[nH]c(=O)n(-c2ccc(Cl)cc2)c1=O`, the GI50 is inactive: > 100 µM.

As for `COC(=O)CCC(=O)NC1=C(Nc2ccccc2)C(=O)c2ccccc2C1=O`, the GI50 was inactive: 17.5 µM.

In the case of `O=C(O)COc1ccccc1C(=O)Nc1ccccc1`, the GI50 is inactive: > 100 µM.

In the case of `O=C(NNc1ccc([N+](=O)[O-])cc1[N+](=O)[O-])/C(O)=C\C(=O)c1ccccc1`, the GI50 is inactive: 23.6 µM.

Turning to `CC(C(O)c1ccccc1)[N+](=O)[O-]` (centres undefined), the GI50 is inactive: 44.1 µM.

As for `CN(C)CCCNc1ccnc2cccc([N+](=O)[O-])c12`, the GI50 is inactive: 15.7 µM.

Turning to `N#Cc1sc2c(c1OC(=O)c1cccs1)c(=O)n(-c1ccccc1)c(=S)n2-c1ccccc1`, the GI50 is inactive: 33 µM.

Regarding `Clc1ccc(OCC2NC3CCC2CC3)cn1` (centres undefined), the GI50 was inactive: 35.3 µM.

In the case of `COc1cc(C(C)=O)cc(C(=O)N(C(C)C)C(C)C)c1[Si](C)(C)C`, the GI50 is inactive: > 100 µM.

For `CC(C)c1c(P(=O)(c2ccccc2)c2ccccc2)n(C)c2ccccc12`, the GI50 was inactive: 47.1 µM.

`CCOc1ccncc1[N+](=O)[O-]`: the GI50 was inactive: > 100 µM.

As to `O=C(NNC(=O)c1ccco1)c1ccco1`, the GI50 is inactive: > 100 µM.

As to `CCC(Nc1ncnc2nc[nH]c12)C(=O)O` (centres undefined), the GI50 is inactive: > 100 µM.

Consider `NNC(=O)c1c(Cl)c(Cl)c(Cl)c(Cl)c1-c1nc2ccccc2[nH]1`, for which the GI50 was inactive: 19.6 µM.

Consider `COc1ccc2cc(C(=O)Nc3ccc(O)c(C(=O)O)c3)ccc2c1OC`, for which the GI50 is inactive: > 100 µM.

In the case of `COC(=O)/C(=N/O)C(C(=O)OC)C(=O)C(=O)Nc1c(Cl)cc(C)cc1S(=O)(=O)O` (centres undefined), the GI50 is inactive: > 100 µM.

Take `S=C(NCCCCCCNC(=S)Nc1c2ccccc2nc2ccccc12)Nc1c2ccccc2nc2ccccc12`: the GI50 is inactive: 65.8 µM.

In the case of `CCCC(=O)OC[n+]1ccc2c(C)c3[nH]c4ccccc4c3c(C)c2c1`, the GI50 is active: 0.2 µM.

Consider `O=C1Nc2ccccc2S/C1=C\c1cccc(C(F)(F)F)c1`, for which the GI50 was inactive: > 100 µM.

For `CCOc1cc(-c2nc3ccccn3c2/N=C/c2cc([N+](=O)[O-])cc([N+](=O)[O-])c2O)ccc1O`, the GI50 was inactive: > 100 µM.

For `Cc1ccc(S(=O)(=O)N/N=C/C2(c3ccccc3)c3ccccc3-c3ccccc32)cc1`, the GI50 is inactive: 20.8 µM.

In the case of `O=C(Nc1ccc(N=C=S)cc1Cl)c1cc(Br)cc(Br)c1O`, the GI50 was inactive: 26.1 µM.

As for `CNCCCNC1(c2cc3ccccc3s2)CCCCC1`, the GI50 was inactive: 8.05 µM.

As to `CC(=O)NC(CCCNC(=O)N(CCCl)N=O)C(=O)NCc1ccccc1` (centres undefined), the GI50 was inactive: > 100 µM.

As for `CC(O)C1(CNc2cc(Cl)nc(N)n2)CCCCC1` (centres undefined), the GI50 is inactive: > 100 µM.

Take `Cc1c2cc[n+](C)cc2c(C)c2c1sc1ccccc12`: the GI50 is active: 1.12 µM.

Consider `Cc1ccc(S(=O)(=O)NC(=O)NCCc2ccc(O)c(O)c2)cc1`, for which the GI50 was inactive: > 100 µM.

Turning to `CC(C)=Nn1cnc2c1=NC(C)(C)NC=2C(N)=O`, the GI50 was inactive: > 10 µM.

As for `CC(C)(C)[C@@H]1NC(=O)CN1C(=O)OCc1ccccc1`, the GI50 is inactive: > 100 µM.

For `COc1cc([C@@H]2c3cc4c(cc3[C@@H](/N=C/c3ccc(C(=O)O[C@@H](C(=O)O[C@H]5C[C@@]6(O)[C@@H](OC(=O)c7ccccc7)[C@@H]7[C@]8(OC(C)=O)CO[C@@H]8C[C@H](O)[C@@]7(C)C(=O)[C@H](OC(C)=O)C(=C5C)C6(C)C)[C@@H](NC(=O)c5ccccc5)c5ccccc5)cc3)[C@H]3COC(=O)[C@H]23)OCO4)cc(OC)c1O`, the GI50 was active: 0.0476 µM.

Take `O=C1c2ccccc2S[C@@H](O)[C@@H]2CCCN12`: the GI50 was inactive: > 100 µM.

For the compound `CC1OC2(CC(OCc3ccccc3)C1OCc1ccccc1)OCCO2` (centres undefined), the GI50 is inactive: > 100 µM.

Take `CCCCCCCCCCCCNC(=S)OC`: the GI50 is inactive: 27 µM.

Take `CNC(=O)c1ccc(C(=O)NCCCCCN(O)C(=O)CCC(=O)NCCCCCN(O)C(=O)CCC(=O)NCCCCCN(O)C(C)=O)c(O)c1O`: the GI50 was inactive: 14.3 µM.

For `COc1ccc(-c2cn3c(nc4ccccc43)c(C)n2)cc1`, the GI50 was inactive: 41.8 µM.

As for `O=C(NC/C=C/Br)NC1CCNc2ccccc21` (centres undefined), the GI50 was inactive: 51.3 µM.

For `CN(C)c1ccc(C(Cc2ccccc2)C2NC(=S)NC2=O)cc1` (centres undefined), the GI50 is inactive: > 100 µM.

With `CC1=C(C(=O)NC(C)(C)C)CC(C(=O)NC(C)(C)C)C(C)N1` (centres undefined), the GI50 was inactive: > 100 µM.

In the case of `CCCCC1=CC1(C#N)[N+](=O)[O-]` (centres undefined), the GI50 is inactive: 98.9 µM.

`CCOc1ccccc1NC(=O)/C=C1\NC(=O)CS1`: the GI50 was inactive: > 100 µM.

On to `CC1(C)OC(=S)N(c2ccccc2)C12C=Cc1ccccc1O2` (centres undefined), for which the GI50 was inactive: > 100 µM.

Consider `CCCCCCCCCCCCOP(=O)(O)OP(=O)(O)OCC1OC(n2cc(C)c(=O)[nH]c2=O)CC1O` (centres undefined), for which the GI50 is inactive: > 100 µM.

With `Nc1nc2c3c(ncn3CC(O)CO2)n1` (centres undefined), the GI50 is inactive: > 100 µM.

For `CC(C)CSCC1OC(n2cnc3c(N)nccc32)C(O)C1O` (centres undefined), the GI50 is inactive: > 100 µM.

`O=C1CCCCC/C1=C\c1cccc(Cl)c1`: the GI50 was inactive: > 100 µM.

Turning to `OCc1cccc(Nc2nc(O)c3[nH]cnc3n2)c1`, the GI50 is inactive: > 100 µM.

For `COC1=C(C)C(=O)c2c(c(COC(N)=O)c3n2CC2C3N2C)C1=O` (centres undefined), the GI50 is active: 0.104 µM.

`COc1ccc2[nH]c3c(C)c4cc[n+](C)cc4c(C)c3c2c1`: the GI50 is active: 0.769 µM.

In the case of `O=c1c(C(c2ccc3c(c2)Cc2ccccc2-3)c2c(O)oc3ccccc3c2=O)c(O)oc2ccccc12`, the GI50 is inactive: 39 µM.

For the compound `CC(=O)OCC1OC(NC(=O)N(CCCl)N=O)C(OC(C)=O)C(OC(C)=O)C1OC(C)=O` (centres undefined), the GI50 is inactive: > 100 µM.

Consider `Nc1nc(O)c2ncn(C3C=CC(CO)C3)c2n1` (centres undefined), for which the GI50 is inactive: > 100 µM.

On to `Nc1nc(-c2ccccc2)nc2c1[n+]([O-])c1ccccc1[n+]2[O-]`, for which the GI50 was inactive: > 100 µM.

As to `O=CC12c3ccccc3C(c3ccccc31)C1C(=O)NC(=O)C12` (centres undefined), the GI50 is inactive: > 100 µM.

Regarding `CCc1nc(N)nc(N)c1-c1ccc(Cl)c(/N=C/N(C)C)c1`, the GI50 is inactive: 56.5 µM.

As for `Cc1ccc2c(O)cc(-c3ccccc3)nc2n1`, the GI50 was active: 0.618 µM.

The values above are taken from ChEMBL document CHEMBL1201862, “PubChem BioAssay data set” (2004).
